Binding signal (RPM ratio (pull-down/input)) data for 40 sequences are collected here from publication PMC12820563.

The list shows a part of the results. The list includes weakly bound sequences.

This assay deals with T1, MBP-FoxP3dN (UniProt Q99JB6).
T1 sequence: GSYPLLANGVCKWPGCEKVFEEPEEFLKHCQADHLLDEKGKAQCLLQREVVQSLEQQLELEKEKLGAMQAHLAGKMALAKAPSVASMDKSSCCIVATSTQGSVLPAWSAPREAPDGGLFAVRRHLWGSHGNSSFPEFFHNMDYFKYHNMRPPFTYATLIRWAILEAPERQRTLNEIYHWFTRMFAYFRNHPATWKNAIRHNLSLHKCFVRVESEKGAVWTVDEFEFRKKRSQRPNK
As to the kind of experiment: PD-seq (MBP pull-down with sequencing). Particulars: 20 mM Tris-HCl pH 7.5, 100 mM NaCl, 1.5 mM MgCl2, 0.4 uM protein, 0.1 uM dsDNA library, 30 min, room temperature, amylose pull-down; high values mean tight binding; double strand, one strand shown.
On to “GATGATTGTTCTCCCAGCTGATGAATTCACGCAATCGAGTAAACAAATTTTCCTAATCTTTCTGTTCAAGCGCCATCTAC”, for which the binding signal (RPM ratio (pull-down/input)) is 2.61.

For the sequence “GATGATTGTTCTCCCAGCTGATGAATTAGAGGGTTCGAGTAAACAAATTTTCCTAATCTTTCTGTTCAAGCGCCATCTAC”, the binding signal (RPM ratio (pull-down/input)) was found to be 0.459.

With “GATGATTGTTCTCCCAGCTGATGAATTACAATACTCGAGTAAACAAATTTTCCTAATCTTTCTGTTCAAGCGCCATCTAC”, the binding signal (RPM ratio (pull-down/input)) came to 0.76.

In the case of “GATGATTGTTCTCCCAGCTGATGAATTCCGGAGCTCGAGTAAACAAATTTTCCTAATCTTTCTGTTCAAGCGCCATCTAC”, the binding signal (RPM ratio (pull-down/input)) came to 0.179.

As for “GATGATTGTTCTCCCAGCTGATGAATTGAGTCCCTCGAGTAAACAAATTTTCCTAATCTTTCTGTTCAAGCGCCATCTAC”, the binding signal (RPM ratio (pull-down/input)) was 0.504.

In the case of “GATGATTGTTCTCCCAGCTGATGAATTTGTGTCTTCGAGTAAACAAATTTTCCTAATCTTTCTGTTCAAGCGCCATCTAC”, the binding signal (RPM ratio (pull-down/input)) worked out at 4.89.

With “GATGATTGTTCTCCCAGCTGATGAATTCACCCCGTCGAGTAAACAAATTTTCCTAATCTTTCTGTTCAAGCGCCATCTAC”, the binding signal (RPM ratio (pull-down/input)) came to 0.253.

Turning to “GATGATTGTTCTCCCAGCTGATGAATTTACTCGTTCGAGTAAACAAATTTTCCTAATCTTTCTGTTCAAGCGCCATCTAC”, the binding signal (RPM ratio (pull-down/input)) is 0.465.

Take “GATGATTGTTCTCCCAGCTGATGAATTGATAGATTCGAGTAAACAAATTTTCCTAATCTTTCTGTTCAAGCGCCATCTAC”: the binding signal (RPM ratio (pull-down/input)) turned out to be 0.495.

As for “GATGATTGTTCTCCCAGCTGATGAATTGCCCATTTCGAGTAAACAAATTTTCCTAATCTTTCTGTTCAAGCGCCATCTAC”, the binding signal (RPM ratio (pull-down/input)) was determined as 0.59.

With “GATGATTGTTCTCCCAGCTGATGAATTAAGAACGTCGAGTAAACAAATTTTCCTAATCTTTCTGTTCAAGCGCCATCTAC”, the binding signal (RPM ratio (pull-down/input)) amounted to 0.261.

On to “GATGATTGTTCTCCCAGCTGATGAATTTAGCCCCTCGAGTAAACAAATTTTCCTAATCTTTCTGTTCAAGCGCCATCTAC”, for which the binding signal (RPM ratio (pull-down/input)) worked out at 1.52.

For the sequence “GATGATTGTTCTCCCAGCTGATGAATTGCAAGTCTCGAGTAAACAAATTTTCCTAATCTTTCTGTTCAAGCGCCATCTAC”, the binding signal (RPM ratio (pull-down/input)) came out at 0.893.

On to “GATGATTGTTCTCCCAGCTGATGAATTCTGTGTTTCGAGTAAACAAATTTTCCTAATCTTTCTGTTCAAGCGCCATCTAC”, for which the binding signal (RPM ratio (pull-down/input)) was found to be 3.31.

For the sequence “GATGATTGTTCTCCCAGCTGATGAATTGCGCCAGTCGAGTAAACAAATTTTCCTAATCTTTCTGTTCAAGCGCCATCTAC”, the binding signal (RPM ratio (pull-down/input)) came to 3.34.

As to “GATGATTGTTCTCCCAGCTGATGAATTCGCTGCCTCGAGTAAACAAATTTTCCTAATCTTTCTGTTCAAGCGCCATCTAC”, the binding signal (RPM ratio (pull-down/input)) was found to be 0.781.

Take “GATGATTGTTCTCCCAGCTGATGAATTTACGTTCTCGAGTAAACAAATTTTCCTAATCTTTCTGTTCAAGCGCCATCTAC”: the binding signal (RPM ratio (pull-down/input)) stood at 0.763.

For “GATGATTGTTCTCCCAGCTGATGAATTTTAATTTTCGAGTAAACAAATTTTCCTAATCTTTCTGTTCAAGCGCCATCTAC”, the binding signal (RPM ratio (pull-down/input)) came out at 0.793.

On to “GATGATTGTTCTCCCAGCTGATGAATTTCCGCACTCGAGTAAACAAATTTTCCTAATCTTTCTGTTCAAGCGCCATCTAC”, for which the binding signal (RPM ratio (pull-down/input)) was 0.461.

As for “GATGATTGTTCTCCCAGCTGATGAATTTCATGCCTCGAGTAAACAAATTTTCCTAATCTTTCTGTTCAAGCGCCATCTAC”, the binding signal (RPM ratio (pull-down/input)) is 0.665.

In the case of “GATGATTGTTCTCCCAGCTGATGAATTAAAGGGCTCGAGTAAACAAATTTTCCTAATCTTTCTGTTCAAGCGCCATCTAC”, the binding signal (RPM ratio (pull-down/input)) was found to be 0.234.

For “GATGATTGTTCTCCCAGCTGATGAATTTCGCTCGTCGAGTAAACAAATTTTCCTAATCTTTCTGTTCAAGCGCCATCTAC”, the binding signal (RPM ratio (pull-down/input)) was determined as 0.734.

For the sequence “GATGATTGTTCTCCCAGCTGATGAATTCGGATTCTCGAGTAAACAAATTTTCCTAATCTTTCTGTTCAAGCGCCATCTAC”, the binding signal (RPM ratio (pull-down/input)) turned out to be 0.557.

In the case of “GATGATTGTTCTCCCAGCTGATGAATTTAAACTTTCGAGTAAACAAATTTTCCTAATCTTTCTGTTCAAGCGCCATCTAC”, the binding signal (RPM ratio (pull-down/input)) was 0.299.

Take “GATGATTGTTCTCCCAGCTGATGAATTTGGACGGTCGAGTAAACAAATTTTCCTAATCTTTCTGTTCAAGCGCCATCTAC”: the binding signal (RPM ratio (pull-down/input)) was found to be 0.282.

For “GATGATTGTTCTCCCAGCTGATGAATTTGATAACTCGAGTAAACAAATTTTCCTAATCTTTCTGTTCAAGCGCCATCTAC”, the binding signal (RPM ratio (pull-down/input)) was determined as 0.658.

In the case of “GATGATTGTTCTCCCAGCTGATGAATTCTTATCGTCGAGTAAACAAATTTTCCTAATCTTTCTGTTCAAGCGCCATCTAC”, the binding signal (RPM ratio (pull-down/input)) was found to be 0.365.

Turning to “GATGATTGTTCTCCCAGCTGATGAATTGGCTTGATCGAGTAAACAAATTTTCCTAATCTTTCTGTTCAAGCGCCATCTAC”, the binding signal (RPM ratio (pull-down/input)) was 0.601.

Regarding “GATGATTGTTCTCCCAGCTGATGAATTACTCCAGTCGAGTAAACAAATTTTCCTAATCTTTCTGTTCAAGCGCCATCTAC”, the binding signal (RPM ratio (pull-down/input)) was determined as 0.213.

With “GATGATTGTTCTCCCAGCTGATGAATTCGAGGGTTCGAGTAAACAAATTTTCCTAATCTTTCTGTTCAAGCGCCATCTAC”, the binding signal (RPM ratio (pull-down/input)) stood at 0.445.

Turning to “GATGATTGTTCTCCCAGCTGATGAATTTCATCACTCGAGTAAACAAATTTTCCTAATCTTTCTGTTCAAGCGCCATCTAC”, the binding signal (RPM ratio (pull-down/input)) was 0.799.

For the sequence “GATGATTGTTCTCCCAGCTGATGAATTCGTACGCTCGAGTAAACAAATTTTCCTAATCTTTCTGTTCAAGCGCCATCTAC”, the binding signal (RPM ratio (pull-down/input)) stood at 0.402.

Consider “GATGATTGTTCTCCCAGCTGATGAATTCCTGATCTCGAGTAAACAAATTTTCCTAATCTTTCTGTTCAAGCGCCATCTAC”, for which the binding signal (RPM ratio (pull-down/input)) worked out at 0.254.

For “GATGATTGTTCTCCCAGCTGATGAATTAACTTAGTCGAGTAAACAAATTTTCCTAATCTTTCTGTTCAAGCGCCATCTAC”, the binding signal (RPM ratio (pull-down/input)) is 0.295.

Consider “GATGATTGTTCTCCCAGCTGATGAATTCATTAAATCGAGTAAACAAATTTTCCTAATCTTTCTGTTCAAGCGCCATCTAC”, for which the binding signal (RPM ratio (pull-down/input)) turned out to be 0.179.

Turning to “GATGATTGTTCTCCCAGCTGATGAATTCCAGTGGTCGAGTAAACAAATTTTCCTAATCTTTCTGTTCAAGCGCCATCTAC”, the binding signal (RPM ratio (pull-down/input)) is 0.415.

As for “GATGATTGTTCTCCCAGCTGATGAATTAGTTCGGTCGAGTAAACAAATTTTCCTAATCTTTCTGTTCAAGCGCCATCTAC”, the binding signal (RPM ratio (pull-down/input)) is 0.374.

“GATGATTGTTCTCCCAGCTGATGAATTGACATACTCGAGTAAACAAATTTTCCTAATCTTTCTGTTCAAGCGCCATCTAC”: the binding signal (RPM ratio (pull-down/input)) is 0.601.

As for “GATGATTGTTCTCCCAGCTGATGAATTGTCATAGTCGAGTAAACAAATTTTCCTAATCTTTCTGTTCAAGCGCCATCTAC”, the binding signal (RPM ratio (pull-down/input)) amounted to 0.489.

Regarding “GATGATTGTTCTCCCAGCTGATGAATTCGACGCCTCGAGTAAACAAATTTTCCTAATCTTTCTGTTCAAGCGCCATCTAC”, the binding signal (RPM ratio (pull-down/input)) is 0.672.
